The values that follow come from patent US20180312565A1 (Affibody, published 2018).

In assay [1] the target is T1, human PD-L2 Fc Chimera (R&D Systems, cat. no. 1224-PL-100) (human, UniProt Q9BQ51 20-219, biotinylated in ELISA).
T1 construct: bought; also called hPD-L2; not shown: Fc part of the bought Fc chimera, not described
T1 sequence (looked up): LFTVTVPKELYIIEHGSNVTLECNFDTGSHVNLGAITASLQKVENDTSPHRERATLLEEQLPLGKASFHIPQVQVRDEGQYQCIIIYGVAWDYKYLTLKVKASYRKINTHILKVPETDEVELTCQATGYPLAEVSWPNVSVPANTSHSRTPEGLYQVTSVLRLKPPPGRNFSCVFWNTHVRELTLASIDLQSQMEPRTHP
The experiment in a line: SPR. The protocol: (§1) One flow cell surface on each chip was activated and deactivated for use as blank during analyte injections. In the kinetic experiment, HBS-EP was used as running buffer and the flow rate was 50 μl/min. The analytes, i.e. the Z variants, were each diluted in HBS-EP buffer within a concentration range of 1000 to 0.01 nM and injected for 5 min, followed by dissociation in running buffer for 15-25 min. After dissociation, the surfaces were regenerated with one or two injections of 0.1% SDS. Kinetic constants were calculated from the sensorgrams using the Langmuir 1:1 model of BiaEvaluation software 4.1 (GE Healthcare).
(§2) The Z variants were also tested for binding against the sequence-related proteins hPD-L2, hB7-H3 and hB7-H4. The Biacore analyses were performed essentially as described in Example 3, however a flow rate of 30 μl/min was used.

Assay [2] has as its target T2, human B7-H3 Fc Chimera (R&D Systems, cat. no. 1027-B3-100) (human, UniProt Q5ZPR3-2 29-245, biotinylated in ELISA).
T2 construct: bought; also called hB7-H3; not shown: Fc part of the bought Fc chimera, not described
T2 sequence (looked up): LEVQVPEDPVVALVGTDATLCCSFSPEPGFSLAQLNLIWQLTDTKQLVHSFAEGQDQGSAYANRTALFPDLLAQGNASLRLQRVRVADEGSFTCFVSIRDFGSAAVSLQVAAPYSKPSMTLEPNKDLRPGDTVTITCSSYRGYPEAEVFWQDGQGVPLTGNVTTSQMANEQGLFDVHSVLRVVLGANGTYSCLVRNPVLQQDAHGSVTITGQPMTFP
Nature of the assay: SPR. The protocol:
as §1, §2

Assay [3] deals with T3, human B7-H4 (R&D Systems, cat. no. 6576-B7-50) (human, UniProt Q7Z7D3 29-258, biotinylated in ELISA).
T3 construct: bought; also called hB7-H4
T3 sequence (looked up): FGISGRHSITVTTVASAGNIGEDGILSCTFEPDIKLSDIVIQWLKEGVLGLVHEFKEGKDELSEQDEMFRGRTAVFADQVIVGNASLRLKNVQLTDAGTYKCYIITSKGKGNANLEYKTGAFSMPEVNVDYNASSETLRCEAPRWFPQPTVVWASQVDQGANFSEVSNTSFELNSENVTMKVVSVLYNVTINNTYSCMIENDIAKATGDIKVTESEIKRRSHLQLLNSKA
Nature of the assay: SPR. On the procedure:
as §1, §2

Assay [4] deals with T4, rhesus PD-L1/Fc Chimera (Sino Biological Inc., cat. no. 90251-C02H) (rhesus monkey, UniProt F6PJN1 19-239).
T4 construct: bought; also called RhPD-L1; rhesus monkey PD-L1; not shown: Fc part of the bought Fc chimera, not described
T4 sequence (F6PJN1 entry or part of it C02H C02H): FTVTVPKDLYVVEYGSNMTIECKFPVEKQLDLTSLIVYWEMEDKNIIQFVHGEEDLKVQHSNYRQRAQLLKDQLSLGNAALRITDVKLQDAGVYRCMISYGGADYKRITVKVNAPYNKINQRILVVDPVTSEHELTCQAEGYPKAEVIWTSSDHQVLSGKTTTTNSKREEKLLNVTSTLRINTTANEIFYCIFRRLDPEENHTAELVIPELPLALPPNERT
Nature of the assay: SPR, 1.67-135 nM. On the procedure: (§3) The Z variants were also tested for binding against the sequence-related proteins hPD-L2, hB7-H3 and hB7-H4. The Biacore analyses were performed essentially as described in Example 3, however a flow rate of 30 μl/min was used. […] In the specificity test, i.e. the binding analysis against hPD-L2, hB7-H3 and hB7-H4, the 24 Z variants were injected at a concentration of 500 nM.

The target of assay [5] is T5, human PD-L1 Fc Chimera (R&D Systems, cat. no. 156-B7-100) (human, UniProt Q9NZQ7 19-239, biotinylated with Sulfo-NHS-LC-Biotin in ELISA and AlphaLISA; not biotinylated in SPR).
T5 construct: bought; also called hPD-L1; biotinylated hPD-L1; not shown: Fc part of the bought Fc chimera, not described
T5 sequence (Q9NZQ7 19-239, change not shown): as the sequence (F6PJN1 entry or part of it C02H C02H) above, with T33A, S34A, N62S, Q68R, R82Q, L173F, A185T, I192T, L215H counted along it
The experiment in a line: SPR ranking, 5 and 50 nM. On the procedure: as §3

Assay [6] has as its target T4, rhesus PD-L1/Fc Chimera (Sino …). Nature of the assay: SPR ranking, 5 and 50 nM. On the procedure:
as §3

Assay [7] concerns the target T5, human PD-L1 Fc Chimera (R&D Systems, …). Nature of the assay: AlphaLISA, blocks hPD-L1 binding to hPD-1. The protocol:
Exception 2: hPD-1-coated Acceptor beads were added to a final concentration of 10 μg/ml and incubated for 50 min.

B1: His6-Z17756 (designed binder)
chain: MGSSHHHHHHLQVDAKYAKERNAAAFEILYLPNLTNAQKWAFIWKLDDDPSQSSELLSEAKKLNDSQAPKVD
As for B1, the binding result in assay [1], in assay [2] and in assay [3] was “no binding (tested: 500 nM)” each time. The Kd in assay [4] is 0.17 nM; in assay [5], approximately 0.24 nM; in assay [6], approximately 2.1 nM. The IC50 in assay [7] stood at 1.5 nM.

B2: His6-Z17978 (designed binder)
chain: MGSSHHHHHHLQVDAKYAKERNEAAYEILYLPNLTQSQKWAFIWKLDDDPSQSSELLSEAKKLNDSQAPKVD
With B2, the binding result in assay [1], in assay [2] and in assay [3] was “no binding (tested: 500 nM)” throughout. Further, the Kd is approximately 0.45 nM in assay [5] and approximately 1 nM in assay [6]. This molecule displayed an IC50 in assay [7] of 0.62 nM.

B3: His6-Z18052 (designed binder)
chain: MGSSHHHHHHLQVDAKYAKERNIAAYEILYLPNLTQSQIWAFIWKLDDDPSQSSELLSEAKKLNDSQAPKVD
Take B3: the binding result in assay [1], in assay [2] and in assay [3] was “no binding (tested: 500 nM)” each time. For the same molecule, the Kd in assay [5] is approximately 0.45 nM; in assay [6], approximately 1.2 nM. Further, the IC50 in assay [7] turned out to be 0.34 nM.

B4: His6-Z18101 (designed binder)
chain: MGSSHHHHHHLQVDAKYAKERNSAAYEILYLPNLTNLQKWAFIWKLDDDPSQSSELLSEAKKLNDSQAPKVD
Take B4: the binding result in assay [1], in assay [2] and in assay [3] was “no binding (tested: 500 nM)” throughout. Besides, in assay [5], the Kd is approximately 0.93 nM. In assay [7], this molecule had an IC50 of 0.62 nM.

B5: His6-Z18233 (designed binder)
chain: MGSSHHHHHHLQVDAKYAKERNTAAQEILYLPNLTQGQKWAFIWKLDDDPSQSSELLSEAKKLNDSQAPKVD
For the molecule B5, the binding result in assay [1], in assay [2] and in assay [3] was “no binding (tested: 500 nM)” each time. The dissociation constant (Kd) in assay [5] is approximately 0.72 nM; in assay [6], approximately 4.4 nM. This molecule registered an IC50 in assay [7] of 0.15 nM.

B6: His6-Z18066 (designed binder)
chain: MGSSHHHHHHLQVDAKYAKERNEAAYEILYLPNLTNSQKWAFIWKLDDDPSQSSELLSEAKKLNDSQAPKVD
Turning to B6, the binding result in assay [1], in assay [2] and in assay [3] was “no binding (tested: 500 nM)” in each case. Further, the figures for the Kd in assay [4], in assay [5] and in assay [6] were 0.35 nM, approximately 0.43 nM and approximately 2.1 nM, respectively. Further, the IC50 in assay [7] amounted to 0.83 nM.

B7: His6-Z18039 (designed binder)
chain: MGSSHHHHHHLQVDAKYAKERNEAAYEILYLPNLTQSQIWAFIWKLDDDPSQSSELLSEAKKLNDSQAPKVD
As for B7, the binding result in assay [1], in assay [2] and in assay [3] was “no binding (tested: 500 nM)” throughout. Besides, the values for the Kd in assay [5] and in assay [6] were approximately 0.63 nM and approximately 1.9 nM, respectively.

B8: His6-Z18353 (designed binder)
chain: MGSSHHHHHHLQVDAKYAKERNEAAYEILYLPNLTQAQKWAFIWKLDDDPSQSSELLSEAKKLNDSQAPKVD
For B8, the binding result in assay [1], in assay [2] and in assay [3] was “no binding (tested: 500 nM)” each time. Further, the Kd was approximately 0.46 nM in assay [5] and approximately 1.6 nM in assay [6]. In assay [7], this molecule returned an IC50 of 0.72 nM.

B9: His6-Z17972 (designed binder)
chain: MGSSHHHHHHLQVDAKYAKERNIAAYEILYLPNLTNNQKWAFIWKLDDDPSQSSELLSEAKKLNDSQAPKVD
Turning to B9, the binding result in assay [1], in assay [2] and in assay [3] was “no binding (tested: 500 nM)” in each case. For the same molecule, the Kd in assay [5] is approximately 0.54 nM.

B10: His6-Z18418 (designed binder)
chain: MGSSHHHHHHLQVDAKYAKERNEAAYEILHLPNLTSYQHWAFIWKLDDDPSQSSELLSEAKKLNDSQAPKVD
B10: the binding result in assay [1], in assay [2] and in assay [3] was “no binding (tested: 500 nM)” in each case. Besides, the Kd is approximately 1.9 nM in assay [5] and approximately 4.1 nM in assay [6]. The molecule also gave an IC50 in assay [7] of 0.57 nM.

B11: His6-Z18149 (designed binder)
chain: MGSSHHHHHHLQVDAKYAKERNNAAYEILYLPNLTQAQKWAFIWKLDDDPSQSSELLSEAKKLNDSQAPKVD
Consider B11, for which the binding result in assay [1], in assay [2] and in assay [3] was “no binding (tested: 500 nM)” throughout. Also, the Kd in assay [5] is approximately 0.53 nM; in assay [6], approximately 0.96 nM.

B12: His6-Z18090 (designed binder)
chain: MGSSHHHHHHLQVDAKYAKERNDAAYEILYLPNLTNQQKWAFIWKLADDPSQSSELLSEAKKLNDSQAPKVD
For B12, the binding result in assay [1], in assay [2] and in assay [3] was “no binding (tested: 500 nM)” throughout. In addition, the Kd was approximately 0.51 nM in assay [5] and approximately 2.3 nM in assay [6]. Moreover, the IC50 in assay [7] amounted to 0.67 nM.

B13: His6-Z18022 (designed binder)
chain: MGSSHHHHHHLQVDAKYAKERNSAAYEILYLPNLTNQQKWAFIWKLDDDPSQSSELLSEAKKLNDSQAPKVD
Consider B13, for which the binding result in assay [1], in assay [2] and in assay [3] was “no binding (tested: 500 nM)” throughout. This molecule yielded a Kd in assay [5] of approximately 0.34 nM. The molecule further registered an IC50 in assay [7] of 0.31 nM.
